At least one structure is not confirmed: it was looked up by name or label, or the drawing left a doubt. Numbered stars: 1 amine (or outer) side, 2 acyl side, 3 side chain; on linkers, the order of the positions; unused ones are H or OH. Peptide text beside a SMILES is read from it. * marks the point of attachment. C20 diacid = O=C(O)CCCCCCCCCCCCCCCCCCC(=O)*; C18 diacid = O=C(O)CCCCCCCCCCCCCCCCC(=O)*; γGlu = O=C(O)[C@H](CCC(=O)[*:2])N[*:1]; AEEA = NCCOCCOCC(=O)O
Assay: Assay (III) ThT fibrillation, physical stability
Assay type: physicochemical
Conditions: pH 7.5, 37° C., shaking

| SMILES | ThT pH 7.5 lag time (h) |
| --- | --- |
| CC(C)C[C@H](NC(=O)[C@H](C)NC(=O)[C@H](C)NC(=O)[C@@H](NC(=O)[C@H](CO)NC(=O)[C@H](CC(C)C)NC(=O)[C@H](CCC(=O)O)NC(=O)[C@H](CO)NC(=O)[C@H](C)NC(=O)CC[C@H](NC(=O)CCCCCCCCCCCCCCCCCCC(=O)O)C(=O)O)[C@@H](C)O)C(=O)NCC(=O)N[C@@H](CCCNC(=N)N)C(=O)N[C@@H](CC(C)C)C(=O)N[C@@H](CO)C(=O)N[C@@H](C)C(=O)N[C@@H](CCC(=O)O)C(=O)N[C@@H](CC(C)C)C(=O)N[C@@H](Cc1c[nH]cn1)C(=O)N[C@@H](CCC(=O)O)C(=O)N[C@@H](CC(C)C)C(=O)N[C@@H](C)C(=O)N[C@H](C(=O)N[C@@H](CC(C)C)C(=O)N1CCC[C@H]1C(=O)N[C@@H](CCCNC(=N)N)C(=O)N[C@H](C(=O)N[C@@H](CCC(=O)O)C(=O)N[C@H](C(=O)NCC(=O)N[C@@H](CO)C(=O)NCC(=O)N[C@@H](CO)C(=O)N1CCC[C@H]1C(N)=O)[C@@H](C)O)[C@@H](C)O)[C@@H](C)O [Ex. #40, [N-terminal(C20 diacid-gGlu), des1, 30S, 31G]mimylin] ({C20 diacid-γGlu}-ASELSTAALGRLSAELHELATLPRTETGSGSP-NH2) | >45 h |
| CC(C)C[C@H](NC(=O)[C@H](C)NC(=O)[C@H](C)NC(=O)[C@@H](NC(=O)[C@H](CO)NC(=O)[C@H](CC(C)C)NC(=O)[C@H](CCC(=O)O)NC(=O)[C@H](CO)NC(=O)[C@H](C)NC(=O)CC[C@H](NC(=O)CCCCCCCCCCCCCCCCC(=O)O)C(=O)O)[C@@H](C)O)C(=O)NCC(=O)N[C@@H](CCCNC(=N)N)C(=O)N[C@@H](CC(C)C)C(=O)N[C@@H](CO)C(=O)N[C@@H](C)C(=O)N[C@@H](CCC(=O)O)C(=O)N[C@@H](CC(C)C)C(=O)N[C@@H](Cc1c[nH]cn1)C(=O)N[C@@H](CCC(=O)O)C(=O)N[C@@H](CC(C)C)C(=O)N[C@@H](C)C(=O)N[C@H](C(=O)N[C@@H](CC(C)C)C(=O)N1CCC[C@H]1C(=O)N[C@@H](CCCNC(=N)N)C(=O)N[C@H](C(=O)N[C@@H](CCC(=O)O)C(=O)N[C@H](C(=O)NCC(=O)N[C@@H](CO)C(=O)NCC(=O)N[C@@H](CO)C(=O)N1CCC[C@H]1C(N)=O)[C@@H](C)O)[C@@H](C)O)[C@@H](C)O [Ex. #46, [N-terminal(C18 diacid-gGlu), des1, 30S, 31G]mimylin] ({C18 diacid-γGlu}-ASELSTAALGRLSAELHELATLPRTETGSGSP-NH2) | >45 h |
| CC(C)C[C@H](NC(=O)[C@H](C)NC(=O)[C@H](C)NC(=O)[C@@H](NC(=O)[C@H](CO)NC(=O)[C@H](CC(C)C)NC(=O)[C@H](CCC(=O)O)NC(=O)[C@H](CO)NC(=O)[C@H](C)NC(=O)COCCOCCNC(=O)CC[C@H](NC(=O)CCCCCCCCCCCCCCCCCCC(=O)O)C(=O)O)[C@@H](C)O)C(=O)NCC(=O)N[C@@H](CCCNC(=N)N)C(=O)N[C@@H](CC(C)C)C(=O)N[C@@H](CO)C(=O)N[C@@H](C)C(=O)N[C@@H](CCC(=O)O)C(=O)N[C@@H](CC(C)C)C(=O)N[C@@H](Cc1c[nH]cn1)C(=O)N[C@@H](CCC(=O)O)C(=O)N[C@@H](CC(C)C)C(=O)N[C@@H](C)C(=O)N[C@H](C(=O)N[C@@H](CC(C)C)C(=O)N1CCC[C@H]1C(=O)N[C@@H](CCCNC(=N)N)C(=O)N[C@H](C(=O)N[C@@H](CCC(=O)O)C(=O)N[C@H](C(=O)NCC(=O)N[C@@H](CO)C(=O)NCC(=O)N[C@@H](CO)C(=O)N1CCC[C@H]1C(N)=O)[C@@H](C)O)[C@@H](C)O)[C@@H](C)O [compound 41, [N-terminal(C20 diacid-gGlu-OEG), des1, 30S, 31G]mimylin] ({C20 diacid-γGlu-AEEA}-ASELSTAALGRLSAELHELATLPRTETGSGSP-NH2) | >45 h |
